Experimental data: the BET-seq Pho4 binding data (Le et al. 2018)
Some of the results follow. These are noisy estimates, calculated here from bound and input reads.

Target: T1, Pho4 (S. cerevisiae) (UniProt P07270)
T1 sequence: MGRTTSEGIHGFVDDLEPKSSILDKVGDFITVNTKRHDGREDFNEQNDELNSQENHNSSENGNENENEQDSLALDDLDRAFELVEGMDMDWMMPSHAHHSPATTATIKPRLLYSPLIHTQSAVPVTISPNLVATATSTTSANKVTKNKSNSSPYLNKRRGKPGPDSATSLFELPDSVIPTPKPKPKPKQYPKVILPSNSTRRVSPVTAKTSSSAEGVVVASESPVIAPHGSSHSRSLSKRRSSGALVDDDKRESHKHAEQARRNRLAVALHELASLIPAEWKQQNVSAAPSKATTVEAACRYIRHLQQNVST
Assay: relative binding free energy (BET-seq); higher = weaker binding
Conditions: reference: library average

Q: With ATGTGCACGTGTAGTC as the sequence, how does the “relative binding free energy” value read?
A: -0.11 kcal/mol

Q: How did the “relative binding free energy” value turn out when GGGTACACGTGCGTAG was run?
A: -0.11 kcal/mol

Q: Which “relative binding free energy” value does the source give for CGAAACACGTGGTGTT here?
A: -0.01 kcal/mol

Q: How did the “relative binding free energy” value turn out when AGTTACACGTGGTCGG was run?
A: 0.11 kcal/mol

Q: How did the “relative binding free energy” value turn out when ATTTTCACGTGACGGA was run?
A: 0.41 kcal/mol

Q: For TCATGCACGTGCGGGT, which “relative binding free energy” value is on record?
A: 0.03 kcal/mol

Q: GGCAGCACGTGTGTAT was tested. Which “relative binding free energy” value did it give?
A: 0.13 kcal/mol

Q: Which “relative binding free energy” value does the source give for TGCGTCACGTGAGGGC here?
A: 0.33 kcal/mol

Q: For AGTTCCACGTGTCGGG, which “relative binding free energy” value is on record?
A: 0.2 kcal/mol

Q: How did the “relative binding free energy” value turn out when CACGTCACGTGTTAGG was run?
A: 0.29 kcal/mol

Q: Which “relative binding free energy” value does the source give for GGGCTCACGTGATGTA here?
A: 0.33 kcal/mol

Q: With GTATACACGTGTGTAC as the sequence, how does the “relative binding free energy” value read?
A: 0.16 kcal/mol

Q: GATAGCACGTGTGTTG was tested. Which “relative binding free energy” value did it give?
A: -0.03 kcal/mol

Q: How did the “relative binding free energy” value turn out when TATCTCACGTGAGTGT was run?
A: 0.19 kcal/mol

Q: How did the “relative binding free energy” value turn out when TTGTTCACGTGGCCGT was run?
A: 0.17 kcal/mol

Q: With TGGTACACGTGGCATG as the sequence, how does the “relative binding free energy” value read?
A: -0.02 kcal/mol

Q: How did the “relative binding free energy” value turn out when TATTCCACGTGGAGTA was run?
A: 0.11 kcal/mol

Q: How did the “relative binding free energy” value turn out when TGATTCACGTGTTTTC was run?
A: 0.36 kcal/mol

Q: AGGGTCACGTGCTTTA was tested. Which “relative binding free energy” value did it give?
A: 0.15 kcal/mol

Q: With TTATGCACGTGGGTGG as the sequence, how does the “relative binding free energy” value read?
A: -0.04 kcal/mol

Q: GGAAGCACGTGGGAAT was tested. Which “relative binding free energy” value did it give?
A: -0.07 kcal/mol

Q: For AAGGGCACGTGGGGGA, which “relative binding free energy” value is on record?
A: -0.16 kcal/mol

Q: Which “relative binding free energy” value does the source give for AGGCGCACGTGGCAGG here?
A: -0.27 kcal/mol

Q: Which “relative binding free energy” value does the source give for TGGTTCACGTGCACGT here?
A: 0.12 kcal/mol

Q: CTTGGCACGTGGAGGG was tested. Which “relative binding free energy” value did it give?
A: -0.25 kcal/mol

Q: How did the “relative binding free energy” value turn out when TGGCTCACGTGATGCG was run?
A: 0.2 kcal/mol

Q: Which “relative binding free energy” value does the source give for TGTAACACGTGTTTAC here?
A: 0.04 kcal/mol

Q: With GTGGGCACGTGGGTCA as the sequence, how does the “relative binding free energy” value read?
A: -0.08 kcal/mol

Q: How did the “relative binding free energy” value turn out when TTTGGCACGTGAGTTT was run?
A: 0.22 kcal/mol

Q: For TGGAGCACGTGGTGGA, which “relative binding free energy” value is on record?
A: -0.16 kcal/mol

Q: How did the “relative binding free energy” value turn out when GGTTACACGTGTTACG was run?
A: 0.2 kcal/mol

Q: AGGATCACGTGAGTCG was tested. Which “relative binding free energy” value did it give?
A: 0.47 kcal/mol

Q: How did the “relative binding free energy” value turn out when TTAATCACGTGTGGAT was run?
A: 0.23 kcal/mol

Q: TTCCTCACGTGATGTT was tested. Which “relative binding free energy” value did it give?
A: 0.41 kcal/mol

Q: For TAGGACACGTGACGGT, which “relative binding free energy” value is on record?
A: 0.09 kcal/mol

Q: Which “relative binding free energy” value does the source give for TGTCTCACGTGTGTTA here?
A: 0.25 kcal/mol

Q: With TATTGCACGTGGTAAA as the sequence, how does the “relative binding free energy” value read?
A: -0.03 kcal/mol

Q: For TTTGCCACGTGTGGTA, which “relative binding free energy” value is on record?
A: 0.03 kcal/mol

Q: TTGTACACGTGAGATG was tested. Which “relative binding free energy” value did it give?
A: 0.31 kcal/mol

Q: For AGAGGCACGTGGACGG, which “relative binding free energy” value is on record?
A: -0.12 kcal/mol

Q: With TCTATCACGTGATTGG as the sequence, how does the “relative binding free energy” value read?
A: 0.38 kcal/mol

Q: How did the “relative binding free energy” value turn out when GTTGTCACGTGTTATA was run?
A: 0.2 kcal/mol

Q: TTTCGCACGTGGTCAT was tested. Which “relative binding free energy” value did it give?
A: -0.08 kcal/mol

Q: GTGGACACGTGCCTGT was tested. Which “relative binding free energy” value did it give?
A: -0.01 kcal/mol

Q: Which “relative binding free energy” value does the source give for ATTATCACGTGTGAGA here?
A: 0.17 kcal/mol

Q: How did the “relative binding free energy” value turn out when TTGGCCACGTGTGTCG was run?
A: -0.07 kcal/mol

Q: AGGGACACGTGGTGGG was tested. Which “relative binding free energy” value did it give?
A: -0.04 kcal/mol

Q: TTGAGCACGTGGTGCT was tested. Which “relative binding free energy” value did it give?
A: -0.19 kcal/mol

Q: For TACGGCACGTGTTATA, which “relative binding free energy” value is on record?
A: -0.09 kcal/mol

Q: ATCGACACGTGAGTGG was tested. Which “relative binding free energy” value did it give?
A: 0.14 kcal/mol

Q: How did the “relative binding free energy” value turn out when TCTTACACGTGAGTTG was run?
A: 0.42 kcal/mol

Q: With GTGTACACGTGTCTAG as the sequence, how does the “relative binding free energy” value read?
A: 0.19 kcal/mol

Q: For ATCTTCACGTGTGCTT, which “relative binding free energy” value is on record?
A: 0.28 kcal/mol

Q: For AGTGACACGTGCTTTG, which “relative binding free energy” value is on record?
A: 0.01 kcal/mol

Q: With ATATTCACGTGGTAGG as the sequence, how does the “relative binding free energy” value read?
A: 0.22 kcal/mol

Q: Which “relative binding free energy” value does the source give for TACATCACGTGGGTGG here?
A: 0.06 kcal/mol

Q: For AGTGTCACGTGACTGG, which “relative binding free energy” value is on record?
A: 0.11 kcal/mol

Q: Which “relative binding free energy” value does the source give for TAGAGCACGTGGGGTG here?
A: -0.21 kcal/mol

Q: GTGGTCACGTGTAAGC was tested. Which “relative binding free energy” value did it give?
A: 0.18 kcal/mol

Q: With CGGGTCACGTGGACTA as the sequence, how does the “relative binding free energy” value read?
A: 0.24 kcal/mol

Q: Which “relative binding free energy” value does the source give for TTTGCCACGTGGGGCT here?
A: -0.25 kcal/mol

Q: Which “relative binding free energy” value does the source give for GGGATCACGTGGGCTG here?
A: -0.08 kcal/mol

Q: AGTTGCACGTGCGTAA was tested. Which “relative binding free energy” value did it give?
A: -0.13 kcal/mol

Q: TCTGGCACGTGTGTCG was tested. Which “relative binding free energy” value did it give?
A: -0.04 kcal/mol

Q: Which “relative binding free energy” value does the source give for ATCGGCACGTGATTTG here?
A: -0.04 kcal/mol

Q: For TGGAGCACGTGTGGTT, which “relative binding free energy” value is on record?
A: -0.02 kcal/mol

Q: For TTAGGCACGTGAGGGA, which “relative binding free energy” value is on record?
A: 0.19 kcal/mol

Q: Which “relative binding free energy” value does the source give for TGCGTCACGTGTCTGG here?
A: 0 kcal/mol

Q: Which “relative binding free energy” value does the source give for GGGTGCACGTGTGGTC here?
A: 0.01 kcal/mol

Q: With AGTGCCACGTGTATGT as the sequence, how does the “relative binding free energy” value read?
A: -0.09 kcal/mol

Q: TAAATCACGTGTGCGT was tested. Which “relative binding free energy” value did it give?
A: -0.02 kcal/mol

Q: For TGCGACACGTGATAGG, which “relative binding free energy” value is on record?
A: 0.15 kcal/mol

Q: With ATCTGCACGTGTGGTA as the sequence, how does the “relative binding free energy” value read?
A: -0.03 kcal/mol

Q: How did the “relative binding free energy” value turn out when ATTGGCACGTGGTAAG was run?
A: -0.19 kcal/mol

Q: For TTGTGCACGTGGACAT, which “relative binding free energy” value is on record?
A: 0.1 kcal/mol

Q: Which “relative binding free energy” value does the source give for GAGTACACGTGGTTGG here?
A: 0.11 kcal/mol

Q: With CGCAGCACGTGGGTGA as the sequence, how does the “relative binding free energy” value read?
A: -0.17 kcal/mol

Q: TAGGTCACGTGTGCAG was tested. Which “relative binding free energy” value did it give?
A: 0.12 kcal/mol

Q: How did the “relative binding free energy” value turn out when AGGTGCACGTGATGTT was run?
A: 0.11 kcal/mol

Q: With TGCGGCACGTGGGGTG as the sequence, how does the “relative binding free energy” value read?
A: -0.26 kcal/mol

Q: How did the “relative binding free energy” value turn out when AGTACCACGTGGTGAT was run?
A: -0.12 kcal/mol

Q: Which “relative binding free energy” value does the source give for TGGCTCACGTGTCGGT here?
A: 0.19 kcal/mol

Q: How did the “relative binding free energy” value turn out when TTGGTCACGTGGGGCG was run?
A: 0.02 kcal/mol

Q: Which “relative binding free energy” value does the source give for TGTTCCACGTGCGTGG here?
A: -0.18 kcal/mol

Q: For TATGTCACGTGAAAGG, which “relative binding free energy” value is on record?
A: 0.4 kcal/mol

Q: Which “relative binding free energy” value does the source give for TCTTCCACGTGTTGGT here?
A: 0.05 kcal/mol

Q: For TTTGGCACGTGACCGG, which “relative binding free energy” value is on record?
A: -0.08 kcal/mol

Q: Which “relative binding free energy” value does the source give for TTTGACACGTGTTGTG here?
A: 0.06 kcal/mol

Q: For GGTTACACGTGTTATG, which “relative binding free energy” value is on record?
A: 0.26 kcal/mol

Q: Which “relative binding free energy” value does the source give for TAATTCACGTGTAGGT here?
A: 0.16 kcal/mol

Q: With TTGTTCACGTGAAGAA as the sequence, how does the “relative binding free energy” value read?
A: 0.42 kcal/mol

Q: Which “relative binding free energy” value does the source give for ATTAGCACGTGTCGGG here?
A: -0.16 kcal/mol

Q: For TTGGGCACGTGAATGC, which “relative binding free energy” value is on record?
A: 0.13 kcal/mol

Q: How did the “relative binding free energy” value turn out when GCGTCCACGTGGGTGT was run?
A: -0.13 kcal/mol

Q: With TTTTGCACGTGTATCG as the sequence, how does the “relative binding free energy” value read?
A: 0.21 kcal/mol

Q: How did the “relative binding free energy” value turn out when TTGTTCACGTGGTATG was run?
A: 0.18 kcal/mol

Q: For GAGAGCACGTGGTGTG, which “relative binding free energy” value is on record?
A: -0.05 kcal/mol

Q: With GAGTACACGTGGAAGG as the sequence, how does the “relative binding free energy” value read?
A: 0.19 kcal/mol

Q: AGTTTCACGTGAATAG was tested. Which “relative binding free energy” value did it give?
A: 0.44 kcal/mol

Q: For GTCAACACGTGGTAGG, which “relative binding free energy” value is on record?
A: -0.09 kcal/mol

Q: How did the “relative binding free energy” value turn out when GGAGTCACGTGGTTGA was run?
A: 0.13 kcal/mol

Q: TTAGTCACGTGGTATG was tested. Which “relative binding free energy” value did it give?
A: 0.11 kcal/mol

Q: For GTGACCACGTGAGTGT, which “relative binding free energy” value is on record?
A: 0.35 kcal/mol

Q: For CTGGTCACGTGAGGTC, which “relative binding free energy” value is on record?
A: 0.17 kcal/mol

Q: How did the “relative binding free energy” value turn out when ACGGTCACGTGTTTGT was run?
A: 0.08 kcal/mol

Q: Which “relative binding free energy” value does the source give for GAGATCACGTGGTTTA here?
A: 0.31 kcal/mol

Q: For GTTGTCACGTGGTATC, which “relative binding free energy” value is on record?
A: 0.1 kcal/mol

Q: For TGTTTCACGTGTGATT, which “relative binding free energy” value is on record?
A: 0.42 kcal/mol

Q: Which “relative binding free energy” value does the source give for TGTTTCACGTGCGTGC here?
A: 0.11 kcal/mol

Q: GAGTCCACGTGGGGAG was tested. Which “relative binding free energy” value did it give?
A: -0.04 kcal/mol

Q: How did the “relative binding free energy” value turn out when TTTGTCACGTGGGTGC was run?
A: -0.06 kcal/mol

Q: For ATGAGCACGTGTTTAG, which “relative binding free energy” value is on record?
A: -0.13 kcal/mol

Q: Which “relative binding free energy” value does the source give for TGATGCACGTGTCGAG here?
A: 0.05 kcal/mol

Q: For ACGGTCACGTGGAATG, which “relative binding free energy” value is on record?
A: 0.12 kcal/mol

Q: With AGTTGCACGTGTGCTG as the sequence, how does the “relative binding free energy” value read?
A: 0.07 kcal/mol
